{"source": "PubChem BioAssay AID624417", "about": "(National Center for Advancing Translational Sciences (NCATS), 2012)", "note": "Screen size: about 410,000 compounds; about 6,400 (1.6%) were called active. Inconclusive means that the source gave no clear call. Such entries were picked first, then a sample of the others. The call rests on the fitted dose curve; in most records, active means well fitted inhibition curve with a large enough effect; inconclusive means small, poorly fitted or top-dose-only effect; inactive means no such curve, though single readings can be large or run the other way. Potencies of inconclusive entries are left out as doubtful fits. On the % scale 0 is the no-effect control and ±100 the full control effect; potency means the concentration at half of the fitted maximal effect; tags describe the fitted curve by direction and shape.", "data": [{"target": "Glucagon-like peptide 1 receptor (Homo sapiens) (UniProt P43220)", "sequence (P43220 whole entry, looked up)": "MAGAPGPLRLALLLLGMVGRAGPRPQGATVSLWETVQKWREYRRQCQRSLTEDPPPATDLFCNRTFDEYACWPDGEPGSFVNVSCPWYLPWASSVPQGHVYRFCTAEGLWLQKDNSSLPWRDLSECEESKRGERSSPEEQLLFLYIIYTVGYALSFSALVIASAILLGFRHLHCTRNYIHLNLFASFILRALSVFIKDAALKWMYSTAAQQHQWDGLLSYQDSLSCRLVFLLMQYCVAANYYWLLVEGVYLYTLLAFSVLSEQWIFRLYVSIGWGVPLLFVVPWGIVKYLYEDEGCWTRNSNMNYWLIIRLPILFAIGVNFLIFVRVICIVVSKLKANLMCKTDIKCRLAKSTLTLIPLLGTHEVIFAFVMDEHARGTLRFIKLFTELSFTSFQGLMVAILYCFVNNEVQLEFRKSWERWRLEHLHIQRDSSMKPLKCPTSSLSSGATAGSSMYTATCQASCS", "test": "qHTS of GLP-1 Receptor Inverse Agonists (Inhibition Mode); further: nearly all actives have a fitted effect of over 55% in size", "details": "HEK293 GLP-1R CRE-luciferase, luminescence, 24 h, GLP-1R form is constitutively active; activity change, negative = inhibition: at 38.3 µM (top of the series) unless noted", "method_in_brief": "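Readout was luciferase luminescence, measured 12 min after detection reagent at room temperature. Beforehand, GLP-1R reporter HEK293 cells had sat 12 h, then received compounds for 24 hr at 37 deg C.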", "values": [{"smiles": "COc1ccc(-c2cc(C3CCN(c4ncccc4[N+](=O)[O-])CC3)[nH]n2)cc1", "Potency": "inconclusive [inhibitor, partial curve, poor fit]"}, {"smiles": "Cc1ccc(S(=O)(=O)N(Cc2ccccc2)c2ccccn2)cc1[N+](=O)[O-]", "Potency": "inconclusive [inhibitor, partial curve, poor fit]"}, {"smiles": "Cc1nc(-c2ccc(S(=O)(=O)N(C)Cc3ccccc3)cc2)co1", "activity change, negative = inhibition": "inactive: 0.645%"}, {"smiles": "O=C(O)c1ccccc1-c1cccc2nncn12", "activity change, negative = inhibition": "inactive: 12%"}, {"smiles": "CCC(C(=O)O/N=C(\\N)c1ccc(Cl)cc1)c1ccccc1", "note": "(centres undefined)", "Potency": "inconclusive [inhibitor, single point]"}, {"smiles": "COc1ccc(-c2c/c(=N\\c3nc(-c4ccccc4)c(C)s3)c3ccccc3o2)cc1O", "Potency": "inconclusive [inhibitor, full curve, poor fit]"}, {"smiles": "CCOC(=O)C1CCCN(Cc2cccc(Oc3ccccc3)c2)C1", "note": "(centres undefined)", "Potency": "inconclusive [inhibitor, single point]"}, {"smiles": "N#CCC(CNc1ncc(C(F)(F)F)cc1Cl)OC(=O)c1ccc(Cl)cc1", "note": "(centres undefined)", "Potency": "inconclusive [inhibitor, partial curve, poor fit]"}, {"smiles": "Cc1ccc(C(=O)N2CCN(c3ncc(C(F)(F)F)cc3Cl)CC2)s1", "Potency": "inconclusive [inhibitor, partial curve, poor fit]"}, {"smiles": "O=C(/C=C/c1ccc(F)cc1)N1CCc2ccccc2C1", "Potency": "inconclusive [inhibitor, single point]"}, {"smiles": "CC(=O)/C(N)=N/Nc1cccc(Cl)c1", "Potency": "inconclusive [inhibitor, full curve, poor fit]"}, {"smiles": "COc1ccc(CNC(=S)Nc2ccc(-c3ccccc3)cc2)cc1", "Potency": "inconclusive [inhibitor, single point]"}, {"smiles": "C=CCn1c(SCC(=O)NC2CCCC2)nc2scc(-c3ccco3)c2c1=O", "Potency": "inconclusive [inhibitor, full curve, poor fit]"}, {"smiles": "O=C1CC(C(F)(F)F)=NN1", "activity change, negative = inhibition": "inactive: 17.5%"}, {"smiles": "CCOC(=O)c1ccc(NC(=S)N2CCSC2c2ccc(OC)cc2)cc1", "note": "(centres undefined)", "Potency": "inconclusive [inhibitor, partial curve, poor fit]"}, {"smiles": "Cc1ccc(S(=O)(=O)C2(C(=O)Nc3ccc(C(C)C)cc3)CC2)cc1", "Potency": "inconclusive [inhibitor, single point]"}, {"smiles": "CCCC(=O)N(CCN1CCOCC1)c1nc2c(F)cc(F)cc2s1", "Potency": "inconclusive [inhibitor, single point]"}, {"smiles": "COc1ccccc1CNC(=O)c1ccc(CSc2nc3ccncc3n2Cc2ccccc2C)cc1", "Potency": "inconclusive [inhibitor, single point]"}, {"smiles": "Cc1cc(Cl)ccc1NC(=O)CN1C(=O)CSc2ccc(S(=O)(=O)N3CCOCC3)cc21", "Potency": "active: 11.2 µM"}, {"smiles": "N=c1n(Cc2ccccc2)c2ccccc2n1CC(O)c1ccco1", "note": "(centres undefined)", "Potency": "inconclusive [inhibitor, partial curve, poor fit]"}, {"smiles": "O=C(NC1CCCCC1)C(c1ccc(C(F)(F)F)cc1)n1c(=O)c(-c2ccccc2)nc2ccccc21", "note": "(centres undefined)", "Potency": "inconclusive [inhibitor, partial curve, poor fit]"}, {"smiles": "CCNC(=S)NC1CC2CCCC(C1)N2Cc1ccc(C)cc1", "note": "(centres undefined)", "activity change, negative = inhibition": "inactive: -23.6%"}, {"smiles": "O=C(O)CCC(C(=O)O)n1c(O)c(C2=c3ccccc3=NC2=O)sc1=S", "note": "(centres undefined)", "Potency": "inconclusive [inhibitor, full curve, poor fit]"}, {"smiles": "Cc1cc(C)cc(-n2c(C)cc(/C=C3\\C(=N)N4N=C(CC(C)C)SC4=NC3=O)c2C)c1", "activity change, negative = inhibition": "inactive: 10.9%"}, {"smiles": "O=C(Cn1nc(-c2ccc(Cl)cc2)ccc1=O)NCCCN1CCN(Cc2ccccc2)CC1", "Potency": "inconclusive [inhibitor, single point]"}, {"smiles": "Cc1cccc(NC(=O)CSCC(=O)Nc2ccccc2N2CCCCC2)c1", "Potency": "inconclusive [inhibitor, partial curve, poor fit]"}, {"smiles": "CC(C)c1ccc(NC(=O)C2Cc3ccccc3N2C(=O)c2ccccc2)cc1", "note": "(centres undefined)", "Potency": "inconclusive [inhibitor, full curve, poor fit]"}, {"smiles": "CCC1Cc2[nH][nH]c(=O)c2C(CC)O1", "note": "(centres undefined)", "activity change, negative = inhibition": "inactive: -3.17%"}, {"smiles": "CCCCCc1ccc(-c2ccc(C(=O)Oc3ccc(C(=O)OC)cc3)cc2)nc1", "activity change, negative = inhibition": "inactive: -1.44%"}, {"smiles": "CC(=N\\NC(=O)c1cc(Br)ccc1O)/C(=N/O)C(=O)Nc1ccccc1", "Potency": "inconclusive [inhibitor, partial curve, poor fit]"}, {"smiles": "Cc1ccc(CS(=O)Cc2ccc(C(=O)N3CCN(c4ccc(F)cc4)CC3)o2)cc1", "note": "(centres undefined)", "Potency": "inconclusive [inhibitor, single point]"}, {"smiles": "Cc1ccc(-c2[nH]nc(N)c2N=Nc2cccc(Cl)c2C)cc1", "Potency": "inconclusive [inhibitor, partial curve, poor fit]"}, {"smiles": "CCN(CC)C(=O)CSc1nc2c(sc(=S)n2-c2ccccc2)c(=O)n1-c1ccccc1OC", "Potency": "inconclusive [inhibitor, single point]"}, {"smiles": "Cc1cc(C)c(S(=O)(=O)N2CCN(C(=O)c3ccc(-n4cncn4)c([N+](=O)[O-])c3)CC2)c(C)c1", "Potency": "inconclusive [inhibitor, partial curve, poor fit]"}, {"smiles": "CCc1ccc([C@@H]2C[C@H]3[C@@H](CN2S(=O)(=O)c2ccc(C)cc2)C(=O)C[C@@H](c2ccccc2F)N3S(=O)(=O)c2ccc(C)cc2)cc1", "Potency": "inconclusive [inhibitor, full curve, poor fit]"}, {"smiles": "Cc1nc2sccn2c1-c1csc(NCc2ccccc2)n1", "activity change, negative = inhibition": "inactive: -8.97%"}, {"smiles": "O=C(Cn1c(C(F)(F)F)nc2ccccc21)c1ccccc1", "Potency": "inconclusive [inhibitor, single point]"}, {"smiles": "CCn1c(COc2ccc(Cl)cc2)nnc1SCc1ccc(C#N)cc1", "Potency": "inconclusive [inhibitor, partial curve, poor fit]"}, {"smiles": "CC(C)=CCc1c(O)c(CC=C(C)C)c2occ(-c3ccc(O)cc3)c(=O)c2c1O", "Potency": "inconclusive [inhibitor, partial curve, poor fit]"}]}]}
